Results as given in the RNAGym collection of RNA variant scans (doi:10.1093/nar/gkz1192).
The source gives no read counts; variants with many changes may rest on few reads.

B1: CPEB3 Ribozyme (parent)
chain: UAACAGGGGGCCACAGCAGAAGCGUUCACGUCGCAGCCCCUGUCAGAUUCUGGUGAAUCUGCGAAUUCUGCUGUAUAUCUC

Variants of: B1
Assay: self-cleavage, relative activity (ratio to wild type); higher = more cleavage; in vitro, sequencing
Summary of the method: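 Relative activity compares each variant's cleaved/total read fraction with that of the unmutated ribozyme. To get these fractions, barcoded CPEB3 ribozyme libraries from rounds of error-prone PCR were transcribed with T7 RNA polymerase for 5 hours at 37°C and then given 15 min of DNase I treatment before EDTA was added. The RNAs were reverse transcribed with template switching and sequenced on Illumina, and DNA sequencing linked barcodes to variants. A minimum of 5 reads applied, and three batches were averaged.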

Variant	self-cleavage
AAACAGGGGGCCUCAGCUGAAGCGUUCACGUCGCAGCCCCUGCCAGAUUCUGGUGAAUCUGCGAAUUCCGCUGUAUAUCUC [U1A A13U A18U U43C U69C]	0.2
AAACAGGGGGCCUCAGCAGAAGAGCCCACGUCGCAGCCCCUGUCAGAUUCUGGUGAAUCUGCGAAUUCUGCAGUAUAUCUC [U1A A13U C23A U25C U26C U72A]	0.24
AAACAGGGGGCCUCAGCAGAAGCGUUCACGUCGCAGCCCCCGUCUGAUUCUGGUGGAUCCGUGAAUUCUGCUGUAUAUCUC [U1A A13U U41C A45U A56G U60C C62U]	0.08
AAACAGGGGGCCUCAGCAGAAGCGUUCACGUCGCAGCCCCCGUCAGAUUCUGGUGAACCUGCGAAUUCUGCUGUAUAUCUC [U1A A13U U41C U58C]	0.37
AAACAGGGGGCCACGGCAGGAGCGUCCACGUCGUAGCCCCUGUCAGAAUCUGGUGAAUCUGCGAAUUCCGCUGUAUAUCUC [U1A A15G A20G U26C C34U U48A U69C]	0.12
AAACAGGGGGCCACGGCAGAAGCGUUCACGUCGCUGCCCCUGUCAGAUUCUGGUGAAUCUGCGAAUUCUGCUGUAAAUCCC [U1A A15G A35U U76A U80C]	0.73
AAACAGGGGGCCACGGCAGAAGCGUUCACGUCGCAGCCCCUGUCAGGUUCAGGUGAAUCUGCGAAUUCUGCUGUAUAUCUC [U1A A15G A47G U51A]	0.95
AAACAGGGGGCCACGGCAGAAGCGUUCACGUCGCAGCCCCUGUCAGAUUCUGGUGAAUCUGCGAAUUAUGCUGUAUAUCUC [U1A A15G C68A]	0.24
AAACAGGGGGCCACGGCAGAAGCGUUCACGUCGCAGCCCCUGUCAGAUUCUGGUGAAUCUGCGAAUCCUGCUGUAUAUCAC [U1A A15G U67C U80A]	0.31
AAACAGGGGGCCACUGCAGAAGCGUUCACGUCGCAGCCCCUGUCGGAUUCUGGUGAAUCUGCGAAUUCCGCGGUAUAUCUC [U1A A15U A45G U69C U72G]	0.14
AAACAGGGGGCCACUGCAGAAGCGUUCACGUCGCAGCCCCUGUCAGAUUCUGGUGUAUCUGCGAAUUCUGCUGUAUAUCUC [U1A A15U A56U]	0.4
AAACAGGGGGCCACUGCAAAAGCGUUCACGUCGCAGCCCCGGUCAGAUUCUGGUGAAUCUGCGAAUUCUGCUGUAUAUCCC [U1A A15U G19A U41G U80C]	0.42
AAACAGGGGGCCACUGCAGAAGCGUCCACGUCGCAGCCCCUGCCAGAUUCUGGUGAAUCUGUGAAUUCCGCUGUAUAUCUC [U1A A15U U26C U43C C62U U69C]	0.16
AAACAGGGGGCCACAGCGGGAGCGCUCACGUCGCAGCCCCUGUCAGAUUCUGGUGAAUCCGCGAAUACUGCUGUAUAUCUC [U1A A18G A20G U25C U60C U67A]	0.12
AAACAGGGGGCCACAGCGGAAGCGUUCACGUCGCUGCCCCUGUCAGAUUCUGGUGAAUCUGCGAAUUCUGCUGUAUAUUUC [U1A A18G A35U C79U]	0.42
AAACAGGGGGCCACAGCGGAAGAGUUCACGUCGCAGCCCCUGUCAGAUUCUGGUGAAUCUGCGAAUUCCGCCGUAUAUCUC [U1A A18G C23A U69C U72C]	0.08
AAACAGGGGGCCACAGCGGAAGCGUUCACGCCGCAGCCCCUGUCAGAUUCUGGUGAAUCAGCGAAUCCUGCUGUAUAUCUC [U1A A18G U31C U60A U67C]	0.21

Variant	self-cleavage
AAACAGGGGGCCACAGCGGAAGCGUUCACGUCGCAGCCCCUGUCAGAUUCUGGUGAACCUGCGAAUUAUGCCGUAAAUCUC [U1A A18G U58C C68A U72C U76A]	0.15
AAACAGGGGGCCACAGCUGAGGCGUUCACGUCGCAGCCCCUGUCAGAUUCUGGUGAAUCCGCGAAUUCUGCUGUAUAUCUC [U1A A18U A21G U60C]	0.28
AAACAGGGGGCCACAGCUGAAGCGUUCACGUAGCAGCCCCUGUCAGAUUCUGGUGAACCAGCGAAUUCUGCUGCAUAUCUC [U1A A18U C32A U58C U60A U74C]	0.07
AAACAGGGGGCCACAGCAGGAGCGAUCACGUCGCAGCCCCUGCCAGAUUCUGGUGAAUCUGCGAAUGCUGCUGUAUACCUC [U1A A20G U25A U43C U67G U78C]	0.04
AAACAGGGGGCCACAGCAGGAGCGCUCACGUCGCUGCCCCUGUCAGAUUCUGGUGAAUCUGCGAAUUCUGCUGUAUAUCUC [U1A A20G U25C A35U]	0.07
AAACAGGGGGCCACAGCAGUAGCGUUCACGUCGCAGCCCCUAUCAGAUUCUGGUGAAUCUGCGAAUUCUGCUGUAUAUCUC [U1A A20U G42A]	0.32
AAACAGGGGGCCACAGCAGUAGCGUUCACGUCGCAGCCCCUGUCAGAUUCUGGUGAAUCUGCGAAUACUGCUGUAUAUCUC [U1A A20U U67A]	1
AAACAGGGGGCCACAGCAGACGCGUUCACGUCGCAGCCCCUGUCAGAUUCUGUUGAAUCUGCGAGUUCUGCUGUAUAUCUC [U1A A21C G53U A65G]	0.2
AAACAGGGGGCCACAGCAGAGGCGUUCACGUCGCAGCCCCUGUCGGAUUCUGGUGAAUCUGCGAAUUCUGCUGUAUAUCUC [U1A A21G A45G]	0.61
AAACAGGGGGCCACAGCAGAGGCGUUCACGUCGCAGCCCCUGUCAGAUUCUGGUGAAUCUGCGGAUCCCGCUGUAUGUCUC [U1A A21G A64G U67C U69C A77G]	0.16
AAACAGGGGGCCACAGCAGAGGCGUUCACGUCGCAGCCCCUGUCAGAUUCUGGUGAAUCUGCGAAUUCUGCUAUAUAACAC [U1A A21G G73A U78A U80A]	0.85
AAACAGGGGGCCACAGCAGAGGCGGUCACGUCGCAGCCCCUGUCAGAUUCUGGUGAAUCUGCGAAUUCUGCUGUGUACCUC [U1A A21G U25G A75G U78C]	0.09
AAACAGGGGGCCACAGCAGAGGCGUUCACGUCGCAGCCCCUGUCAGAUACUGGUGAAUAUGCGAAUCCUGCUGUAUAUCUC [U1A A21G U49A C59A U67C]	0.11
AAACAGGGGGCCACAGCAGAGGCGUUCACGUCGCAGCCCCUGUCAGAUUCUGGUGAAUCUGCGAAUUCUGCCGAAUAUCUC [U1A A21G U72C U74A]	0.85
AAACAGGGGGCCACAGCAGAUGCGUUCACGUCGCAGCCCCUGUCAGAUUCUGGUGAAUCUGCGAAUUCGGCUGUAUAUCUC [U1A A21U U69G]	0.1
AAACAGGGGGCCACAGCAGAAGCGUUCUCGUCGCAGCCCCUGUCAGAUUCAGGCGAAUCUGCGAAUUCUGCUGUAUAUCUC [U1A A28U U51A U54C]	0.91
AAACAGGGGGCCACAGCAGAAGCGUUCACGUCGCCGCCUCUGUCAGAUUCUGGCGAAUCUGCGAGUUCUCCUGUAUAUCUC [U1A A35C C39U U54C A65G G70C]	0.15
